From paper PMC9911399, “Two distinct binding modes provide the RNA-binding protein RbFox with extraordinary sequence specificity”
Residue numbers refer to the chain shown, from its start. The list shows a part of the results.

T1: RBFOX1 RRM RbFoxmut (Fox-RRM*) (Homo sapiens, UniProt Q9NWB1 109-208, R118D;E147R;N151S;E152T)
T1 sequence: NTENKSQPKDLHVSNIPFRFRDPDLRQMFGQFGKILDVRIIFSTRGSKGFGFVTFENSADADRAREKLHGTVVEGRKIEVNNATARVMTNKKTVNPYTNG

B1: UCCGGUA (DNA:RNA)
RNA: GGGAGACCGGAAUUCAGAUUGUCCUCCGGUAUUAAAUCCCGUCGUAGCCACCA
DNA 1: CAATCTGAATTCCGGTCTCCC
DNA 2: TGGTGGCTACGACGGGATT
B2: CAGAACC (DNA:RNA)
RNA: GGGAGACCGGAAUUCAGAUUGUCCCAGAACCUUAAAUCCCGUCGUAGCCACCA
DNA 1: CAATCTGAATTCCGGTCTCCC
DNA 2: TGGTGGCTACGACGGGATT
B3: CACACUG (DNA:RNA)
RNA: B2 RNA with G27C, A29C, C30U, C31G
DNA 1: CAATCTGAATTCCGGTCTCCC
DNA 2: TGGTGGCTACGACGGGATT
B4: CUUGGAC (DNA:RNA)
RNA: B2 RNA with A26U, G27U, A28G, A29G, C30A
DNA 1: CAATCTGAATTCCGGTCTCCC
DNA 2: TGGTGGCTACGACGGGATT
B5: GCCGCAG (DNA:RNA)
RNA: B1 RNA with U25G, G29C, U30A, A31G
DNA 1: CAATCTGAATTCCGGTCTCCC
DNA 2: TGGTGGCTACGACGGGATT
B6: UAGGCUA (DNA:RNA)
RNA: B1 RNA with C26A, C27G, G29C
DNA 1: CAATCTGAATTCCGGTCTCCC
DNA 2: TGGTGGCTACGACGGGATT
B7: AGGUUAA (DNA:RNA)
RNA: B2 RNA with C25A, A26G, A28U, A29U, C30A, C31A
DNA 1: CAATCTGAATTCCGGTCTCCC
DNA 2: TGGTGGCTACGACGGGATT
B8: UACAUGC (DNA:RNA)
RNA: B2 RNA with C25U, G27C, A29U, C30G
DNA 1: CAATCTGAATTCCGGTCTCCC
DNA 2: TGGTGGCTACGACGGGATT
B9: AUGCCUA (DNA:RNA)
RNA: B1 RNA with U25A, C26U, C27G, G28C, G29C
DNA 1: CAATCTGAATTCCGGTCTCCC
DNA 2: TGGTGGCTACGACGGGATT
B10: UGUAGUU (DNA:RNA)
RNA: B1 RNA with C26G, C27U, G28A, A31U
DNA 1: CAATCTGAATTCCGGTCTCCC
DNA 2: TGGTGGCTACGACGGGATT
B11: AACACAA (DNA:RNA)
RNA: B2 RNA with C25A, G27C, A29C, C30A, C31A
DNA 1: CAATCTGAATTCCGGTCTCCC
DNA 2: TGGTGGCTACGACGGGATT
B12: AGCUGUA (DNA:RNA)
RNA: B1 RNA with U25A, C26G, G28U
DNA 1: CAATCTGAATTCCGGTCTCCC
DNA 2: TGGTGGCTACGACGGGATT
B13: AGCCCUC (DNA:RNA)
RNA: B1 RNA with U25A, C26G, G28C, G29C, A31C
DNA 1: CAATCTGAATTCCGGTCTCCC
DNA 2: TGGTGGCTACGACGGGATT
B14: ACAAGCA (DNA:RNA)
RNA: B1 RNA with U25A, C27A, G28A, U30C
DNA 1: CAATCTGAATTCCGGTCTCCC
DNA 2: TGGTGGCTACGACGGGATT
B15: GAGAUGA (DNA:RNA)
RNA: B2 RNA with C25G, A29U, C30G, C31A
DNA 1: CAATCTGAATTCCGGTCTCCC
DNA 2: TGGTGGCTACGACGGGATT
B16: GAUAGCG (DNA:RNA)
RNA: B2 RNA with C25G, G27U, A29G, C31G
DNA 1: CAATCTGAATTCCGGTCTCCC
DNA 2: TGGTGGCTACGACGGGATT
B17: UGUGCGG (DNA:RNA)
RNA: B1 RNA with C26G, C27U, G29C, U30G, A31G
DNA 1: CAATCTGAATTCCGGTCTCCC
DNA 2: TGGTGGCTACGACGGGATT
B18: AGGAUUG (DNA:RNA)
RNA: B2 RNA with C25A, A26G, A29U, C30U, C31G
DNA 1: CAATCTGAATTCCGGTCTCCC
DNA 2: TGGTGGCTACGACGGGATT
B19: CUUUUAG (DNA:RNA)
RNA: B2 RNA with A26U, G27U, A28U, A29U, C30A, C31G
DNA 1: CAATCTGAATTCCGGTCTCCC
DNA 2: TGGTGGCTACGACGGGATT
B20: GGUAGUC (DNA:RNA)
RNA: B2 RNA with C25G, A26G, G27U, A29G, C30U
DNA 1: CAATCTGAATTCCGGTCTCCC
DNA 2: TGGTGGCTACGACGGGATT
B21: CCAGCGC (DNA:RNA)
RNA: B2 RNA with A26C, G27A, A28G, A29C, C30G
DNA 1: CAATCTGAATTCCGGTCTCCC
DNA 2: TGGTGGCTACGACGGGATT
B22: AGGGUUA (DNA:RNA)
RNA: B1 RNA with U25A, C26G, C27G, G29U
DNA 1: CAATCTGAATTCCGGTCTCCC
DNA 2: TGGTGGCTACGACGGGATT
B23: ACUCCGA (DNA:RNA)
RNA: B1 RNA with U25A, C27U, G28C, G29C, U30G
DNA 1: CAATCTGAATTCCGGTCTCCC
DNA 2: TGGTGGCTACGACGGGATT
B24: GGGACCA (DNA:RNA)
RNA: B2 RNA with C25G, A26G, A29C, C31A
DNA 1: CAATCTGAATTCCGGTCTCCC
DNA 2: TGGTGGCTACGACGGGATT
B25: GUGGGUG (DNA:RNA)
RNA: B1 RNA with U25G, C26U, C27G, A31G
DNA 1: CAATCTGAATTCCGGTCTCCC
DNA 2: TGGTGGCTACGACGGGATT
B26: GUUAGUG (DNA:RNA)
RNA: B1 RNA with U25G, C26U, C27U, G28A, A31G
DNA 1: CAATCTGAATTCCGGTCTCCC
DNA 2: TGGTGGCTACGACGGGATT
B27: GGUUAAA (DNA:RNA)
RNA: B2 RNA with C25G, A26G, G27U, A28U, C30A, C31A
DNA 1: CAATCTGAATTCCGGTCTCCC
DNA 2: TGGTGGCTACGACGGGATT
B28: GUGUUCC (DNA:RNA)
RNA: B2 RNA with C25G, A26U, A28U, A29U
DNA 1: CAATCTGAATTCCGGTCTCCC
DNA 2: TGGTGGCTACGACGGGATT
B29: GUCACGA (DNA:RNA)
RNA: B1 RNA with U25G, C26U, G28A, G29C, U30G
DNA 1: CAATCTGAATTCCGGTCTCCC
DNA 2: TGGTGGCTACGACGGGATT
B30: GAAUUGC (DNA:RNA)
RNA: B2 RNA with C25G, G27A, A28U, A29U, C30G
DNA 1: CAATCTGAATTCCGGTCTCCC
DNA 2: TGGTGGCTACGACGGGATT
B31: GGCAGCA (DNA:RNA)
RNA: B1 RNA with U25G, C26G, G28A, U30C
DNA 1: CAATCTGAATTCCGGTCTCCC
DNA 2: TGGTGGCTACGACGGGATT

target: T1, RBFOX1 RRM RbFoxmut (Fox-RRM*); experiment: EMSA; HiTS-Eq, 1 nM pool, 10 min; buffer printed only for the single-RNA assays: 10 mM Tris pH 7.5, 150 mM NaCl, 3.4 mM EDTA, 0.001% NP-40, 30 C; settings: tags: His6 N-terminal (pET28a); label: 5' 32P
Summary of the method: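 A pool of RNA with 7 randomized nucleotides, 5′-radiolabelled and with DNA-annealed flanks, was equilibrated at 1 nM for 10 min in 50 µL with purified RbFox RRM, wild type or mutant, across increasing protein concentrations. Free RNA was separated by 8% native PAGE, excised, reverse-transcribed, barcoded by PCR and sequenced. Relative association constants were obtained from read-count changes of each RNA species versus the control reaction and normalised to the cognate motif.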

Binder | binding signal
B1 | 0.113 KA relative to UGCAUGU
B2 | 0.0612 KA relative to UGCAUGU
B3 | 0.105 KA relative to UGCAUGU
B4 | 0.0782 KA relative to UGCAUGU
B5 | 0.094 KA relative to UGCAUGU
B6 | 0.115 KA relative to UGCAUGU
B7 | 0.0956 KA relative to UGCAUGU
B8 | 0.0766 KA relative to UGCAUGU
B9 | 0.0874 KA relative to UGCAUGU
B10 | 0.144 KA relative to UGCAUGU
B11 | 0.0832 KA relative to UGCAUGU
B12 | 0.163 KA relative to UGCAUGU
B13 | 0.0675 KA relative to UGCAUGU
B14 | 0.127 KA relative to UGCAUGU
B15 | 0.0886 KA relative to UGCAUGU
B16 | 0.105 KA relative to UGCAUGU

Binder | binding signal
B17 | 0.122 KA relative to UGCAUGU
B18 | 0.583 KA relative to UGCAUGU
B19 | 0.144 KA relative to UGCAUGU
B20 | 0.199 KA relative to UGCAUGU
B21 | 0.111 KA relative to UGCAUGU
B22 | 0.123 KA relative to UGCAUGU
B23 | 0.0776 KA relative to UGCAUGU
B24 | 0.0856 KA relative to UGCAUGU
B25 | 0.349 KA relative to UGCAUGU
B26 | 0.155 KA relative to UGCAUGU
B27 | 0.0723 KA relative to UGCAUGU
B28 | 0.0879 KA relative to UGCAUGU
B29 | 0.0957 KA relative to UGCAUGU
B30 | 0.119 KA relative to UGCAUGU
B31 | 0.108 KA relative to UGCAUGU
